# Reference: PubChem BioAssay AID485281 (National Center for Advancing Translational Sciences (NCATS), 2010)
# In all, about 350,000 compounds went through this assay and about 260 (0.074%) were called active. Inconclusive results, whose numbers are uncertain, are shown with a selection of clear calls. Calls come from the whole dose curve; as a rule, active = well fitted inhibition curve with a large enough effect; inconclusive = small, poorly fitted or top-dose-only effect; inactive = no such curve, though single readings can be large or run the other way. Where the call is inconclusive, the potency comes from a doubtful curve fit.
# Biological target: Ferritin light chain (Equus caballus) (UniProt P02791)
# Sequence of UniProt P02791 (P02791 whole entry, looked up): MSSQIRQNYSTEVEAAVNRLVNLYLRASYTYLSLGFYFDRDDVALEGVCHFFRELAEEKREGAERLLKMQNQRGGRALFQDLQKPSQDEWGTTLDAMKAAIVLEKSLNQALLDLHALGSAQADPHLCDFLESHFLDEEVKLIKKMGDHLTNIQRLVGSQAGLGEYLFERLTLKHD
# Assay: qHTS Assay for Identification of Novel General Anesthetics; note: nearly all actives have a fitted effect of over 20% in size
# Settings: apoferritin/1-aminoanthracene competitive binding, fluorescence; activity change, negative = displacement: at 77.5 µM (top of the series)
# Procedure, shortened: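 In PBS, apoferritin at 10 uM is loaded with 1-AMA from a 50% saturated solution. After 10 min of compound exposure at ambient temperature, reduced 535 nm fluorescence indicates probe displacement.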
# % is set by controls: 0 for no effect and ±100 for the full control effect; potency is the fitted concentration of half-maximal effect; tags give direction and shape of the fitted curve.
Structure (SMILES),Potency,"activity change, negative = displacement"
O=C(CSc1nc2ccccc2[nH]1)c1cccs1,"inconclusive: 31.6 µM [inhibitor, partial curve]",
O=[N+]([O-])C(/C=C(\Cl)[N+](=O)[O-])=C(N1CCCCC1)N1CCCCC1,,inactive: -4.9%
CCc1sc(C(=O)N2CCN(c3ncccn3)CC2)cc1Br,,inactive: -11.3%
Cc1ccc(C)c(-c2ccc(=O)n(C(C)C(=O)Nc3ccccc3C(F)(F)F)n2)c1 (centres undefined),"inconclusive: 28.2 µM [inhibitor, partial curve]",
CCN(CC)c1ccc2cc(-c3nnc(-c4ccccc4)o3)c(=O)oc2c1,,inactive: 115%
COC(=O)[C@@]1(Cc2ccc(OC)cc2)[C@H]2c3cc(C(=O)N(C)C)n(Cc4ccc(C(F)(F)F)nc4)c3C[C@H]2CN1C(=O)c1ccccc1,"inconclusive: 50.1 µM [inhibitor, single point]",
CC1CCCCN1C(=O)Cn1cc(/C=C2/C(=O)Nc3ccccc32)c2ccccc21 (centres undefined),"inconclusive: 4.47 µM [inhibitor, full curve]",
CCCCNC(=O)c1onc(CSc2cccc3ccccc23)c1C(=O)O,"inconclusive: 31.6 µM [inhibitor, partial curve]",
Cc1cccc(N=C2NN=C(c3ccc4c(c3)OCCO4)CS2)c1,"inconclusive: 20 µM [inhibitor, partial curve]",
C=CCSC1=N/C(=C\c2ccsc2)C(=O)S1,"inconclusive: 31.6 µM [inhibitor, partial curve]",
Cc1c(Cl)cccc1N1CC(C)(C)C1=O,"inconclusive: 35.5 µM [inhibitor, single point]",
Cc1ccc(OCCSCc2nc3ccccc3[nH]2)cc1,"inconclusive: 28.2 µM [inhibitor, partial curve]",
Cc1ccc(S(=O)(=O)N2CCCCC2)cc1NC(=O)COC(=O)C1=COCCO1,,inactive: -8.1%
CCOCC(=O)Nc1ccc(-c2cn3c(C)csc3n2)cc1,"inconclusive: 31.6 µM [inhibitor, partial curve, poor fit]",
Cc1ccc(OCCC(=O)OCC(=O)N2c3ccccc3CC2C)cc1 (centres undefined),"inconclusive: 3.98 µM [inhibitor, partial curve]",
Cc1nonc1C1CCCN1C(=O)c1cc(COc2ccc(F)cc2Cl)on1 (centres undefined),"inconclusive: 7.94 µM [inhibitor, partial curve]",
C/C(=C\C(=O)c1ccc(Cl)cc1)NCc1ccc2c(c1)OCO2,"inconclusive: 8.91 µM [inhibitor, partial curve]",
O=C(Nc1cccnc1)c1ccc(CN2CCc3ccccc3C2)cc1,,inactive: -18.6%
COc1cccc(CNc2ccc([N+](=O)[O-])cc2C)c1,"inconclusive: 11.2 µM [inhibitor, partial curve]",
C#CCOc1ccc(/C=N/O)cc1Cl,"inconclusive: 28.2 µM [inhibitor, single point]",
COc1ccc(-n2c(Cc3cccn3C)nnc2SCC(=O)N2CCC(C)CC2)cc1,"inconclusive: 25.1 µM [inhibitor, single point]",
Cc1cccc(NC(=S)NNC(=O)c2csc3c2CCC(C)C3)c1 (centres undefined),"inconclusive: 15.8 µM [inhibitor, partial curve]",
CN(C)/C=N/C(=S)Nc1ccc(Cl)c(Cl)c1,"inconclusive: 14.1 µM [inhibitor, partial curve]",

Structure (SMILES),Potency,"activity change, negative = displacement"
Cc1nn(CC(=O)N2CCC(C)CC2)c(=O)c2cccn12,,inactive: -5.55%
O=C(Nc1cccc(NC(=O)c2ccccc2[N+](=O)[O-])c1)c1ccccc1Cl,"inconclusive: 35.5 µM [inhibitor, single point]",
Cc1cc(-n2c(C)cc(C(=O)CSc3nnnn3-c3ccccc3)c2C)no1,"inconclusive: 11.2 µM [inhibitor, full curve, poor fit]",
Cc1ccc(-c2nnc(COc3cccc(-n4cnnn4)c3)o2)cc1,"inconclusive: 7.94 µM [inhibitor, partial curve]",
O=C(NCCCN1CCCC(O)C1)c1cc(COc2ccc(F)cc2F)on1 (centres undefined),,inactive: -20.8%
COc1ccc(NS(=O)(=O)c2cccc(C(=O)NC3CCN(Cc4ccccc4)CC3)c2)cc1,,inactive: -4.49%
CC(C)C(=O)NC(Nc1cccc([N+](=O)[O-])c1)C(Cl)(Cl)Cl (centres undefined),"inconclusive: 25.1 µM [inhibitor, partial curve]",
CCCCc1c(C)nn(-c2nnc3c4ccccc4n(CC)c3n2)c1C,"inconclusive: 2.82 µM [inhibitor, full curve, poor fit]",
Cc1ccc(N2CSC3=C(C#N)C(c4cccs4)CC(=O)N3C2)cc1 (centres undefined),"inconclusive: 44.7 µM [inhibitor, single point]",
Nc1nc(F)cc(NCc2ccccc2)n1,"inconclusive: 25.1 µM [inhibitor, partial curve]",
Cc1cc(C)c(C#N)c(SCS(=O)c2ccc(C(C)(C)C)cc2)n1 (centres undefined),"inconclusive: 22.4 µM [inhibitor, partial curve]",
O=[N+]([O-])c1cc(/C=N\Nc2nc(-c3ccccc3)cs2)ccc1O,"inconclusive: 35.5 µM [inhibitor, partial curve]",
O=C(O)CSCCc1ccccn1,,inactive: -9.74%
COc1cccc(CNc2ncc(Br)cc2Br)c1O,"inconclusive: 11.2 µM [inhibitor, full curve]",
O=[N+]([O-])c1cccc(N/N=C/c2ccc(N3CCOCC3)cc2)c1,"inconclusive: 10 µM [inhibitor, partial curve]",
O=c1[nH]c(Cc2ccccn2)nc2scc(-c3ccc(Cl)cc3)c12,"inconclusive: 20 µM [inhibitor, partial curve]",
CCc1cc(=O)[nH]c(SCc2ccc(C)cc2)n1,"inconclusive: 15.8 µM [inhibitor, partial curve]",
C/C(=N\NC(=O)Cc1ccc(Cl)c(Cl)c1)c1cccnc1,"inconclusive: 31.6 µM [inhibitor, partial curve]",
COc1ccc(C2C=C(c3ccccc3)Nc3nc(NC(=O)/C=C/c4ccc(F)cc4)nn32)cc1 (centres undefined),"inconclusive: 31.6 µM [inhibitor, single point]",
O=C1Nc2ccccc2/C1=N\N=C\C1=C(N2CCOCC2)C(=C\c2ccccc2)/CC1,"inconclusive: 8.91 µM [inhibitor, partial curve]",
CC1CCCCN1C(=O)c1ccc(COc2ccc([N+](=O)[O-])cc2)o1 (centres undefined),"inconclusive: 8.91 µM [inhibitor, partial curve]",
CCC(C)Sc1c(C(C)C)cnc2c1c(=O)n(C)c(=O)n2C (centres undefined),"inconclusive: 3.98 µM [inhibitor, full curve]",
CCOc1cc(C)cc2oc(=O)cc(-c3ccccc3)c12,"inconclusive: 35.5 µM [inhibitor, partial curve]",

Structure (SMILES),Potency,"activity change, negative = displacement"
Cc1ccc(C)c(N2CCN(C(=O)CN3C(=O)c4ccccc4C3=O)CC2)c1,"inconclusive: 28.2 µM [inhibitor, partial curve]",
CS(=O)(=O)c1ccc2c(c1)SC1=NC(=O)/C(=C/c3ccco3)C(=N)N12,"inconclusive: 50.1 µM [inhibitor, single point]",
CCOc1cc(C(=S)N2CCOCC2)ccc1OC(=O)c1ccc(C)cc1,"inconclusive: 39.8 µM [inhibitor, single point]",
COc1ccc(NCC(=O)N/N=C2\CCc3ccccc32)cc1,"inconclusive: 31.6 µM [inhibitor, partial curve]",
Cc1ccc(CNC(=O)CCC2CCCN(Cc3cccc4ncccc34)C2)o1 (centres undefined),"inconclusive: 35.5 µM [inhibitor, single point]",
CC1CCc2c(sc(/N=C/N(C)C)c2C#N)C1 (centres undefined),,inactive: -15.6%
O=C(CC12CC3CC(CC(C3)C1)C2)N1CCCOC1,"inconclusive: 15.8 µM [inhibitor, partial curve]",
Cc1[nH]n(-c2ccccc2)c(=S)c1C=Nc1ccc([N+](=O)[O-])cc1,"inconclusive: 50.1 µM [inhibitor, single point]",
C/C(=N/OC(=O)c1c(-c2ccccc2Cl)noc1C)c1cnccn1,"inconclusive: 35.5 µM [inhibitor, partial curve]",
OC(CNCC1CCCO1)COc1ccc(OCC(O)CNCC2CCCO2)cc1 (centres undefined),,inactive: 3.38%
Cn1c(CN2CCCC2)nc2cc(NC(=O)COc3ccc(Cl)cc3)ccc21,,inactive: -10.6%
Cc1ccc(C(=O)n2nc(-c3cccnc3)nc2N)cc1,,inactive: -4.52%
CN(C)c1cc2c(c(N(C)C)c1)C(=O)c1ccccc1C2=O,"inconclusive: 14.1 µM [inhibitor, partial curve]",
O=C(O)c1cn(C2CC2)c2cc(N3CCNCC3)c(F)cc2c1=O,,inactive: -3.38% [at 29.3 µM]
C/C(=N/NC(=O)c1ccccn1)c1c[nH]c2ccccc12,,inactive: -3.3%
CCCC(=O)NC(c1ccc(Cl)cc1Cl)c1ccc2cccnc2c1O (centres undefined),,inactive: -19.4%
COCCn1c(C)cc(C(=O)COC(=O)/C=C/c2cccc(OC)c2)c1C,"inconclusive: 39.8 µM [inhibitor, partial curve]",
CN1C(=S)SC(N(O)C=C2C=CC(=O)C=C2)C1(C)C (centres undefined),"inconclusive: 44.7 µM [inhibitor, single point]",
Cc1ccccc1OCCN1CCC(Cc2ccccc2)CC1,,inactive: -15%
Cc1ccc(NC(=O)c2ccc(CSc3nccc(C)n3)cc2)cc1,"inconclusive: 31.6 µM [inhibitor, partial curve]",
Cc1ccsc1/C=C(\C(=O)c1ccc(OC(C)C)cc1)c1nc2ccccc2o1,"inconclusive: 10 µM [inhibitor, full curve]",
CCOc1ccccc1NC(=O)c1cc(S(=O)(=O)NCc2ccco2)ccc1F,,inactive: -5.02%
CC(C)(C)SCCNS(=O)(=O)c1ccc(Cl)cc1,"inconclusive: 25.1 µM [inhibitor, partial curve]",
